Assay results taken from the supplement of paper PMC5499739.
In all, about 16,000 sequences were measured (“Z-score”: median about -0.37, highest 2% from about 3.2 on). The list shows a part of the results.

What follows are sequences tested on RBM10 RRM1-ZnF (GST-tagged construct) (assay: RNAcompete 7-mer binding Z-score; higher = stronger binding preference).
How it was run: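 A one-sided Z-score for enrichment, taken across the probes containing each heptamer motif, was assigned to every such motif. The RNA came from a designed pool of 241 399 sequences up to 41 nt (1.5 nmol), bound by 20 pmol of GST-tagged RBM10 constructs in 1 ml Hepes pH 7.8 buffer with glutathione Sepharose beads for 30 min at 4°C. Four 2-min washes at 4°C preceded identification of bound RNA by microarray hybridisation.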

Sequence | RNAcompete 7-mer binding Z-score
GAAUGCA | 0.0723
GCCUAAC | -0.668
GAAUCGC | -0.386
CCCAUCG | -0.629
GAAGUGA | 1.5
ACGUCAA | -0.461
AACAUAA | -0.535
CCGGUCA | -0.412
CAGCCGU | -0.795
CGGGGUU | 2.77
UCUCGGC | -0.665
GCCGAGU | -0.516
GCCAAGG | 0.797
UUUAGGA | 0.326
GUGAUCG | 0.365
CGUAGCG | -0.00571
UGCCUUG | -0.73
UGCGGGC | 1.13
AACGCGA | -0.37
CGAAUGA | -0.314
GUUAUUC | -0.513
GUAAAAC | 0.137
GCAGGAA | 1.77

Sequence | RNAcompete 7-mer binding Z-score
UGAGGUG | 2.83
AUCAAUG | -0.246
GGCGCGG | 1.8
ACCUAUA | -0.782
GCGUUUC | -0.396
UUGCUAC | -0.769
CCAGAAU | -0.539
UUAGUCG | -0.311
GUCCUGU | -0.428
AGACCCA | -0.935
CUCAUGC | -0.876
CAACCCU | -0.831
CUACUUU | -0.902
UGCUCCC | -0.457
CCCGUAA | -0.685
CCGGUUG | 0.335
CCGCCCG | -0.386
CUUUUCU | -0.886
UAUACCC | -0.743
AGUCAAC | -0.262
ACGCUGU | -0.558
UGGGACG | 2.03
CAAAAUC | -0.785

Sequence | RNAcompete 7-mer binding Z-score
GACUUGU | -0.62
AGCCCUG | -0.617
GGGCUCA | 0.485
UCUUUAC | -0.795
UUGACGA | -0.324
GGUACCC | 0.0203
UCGAUAC | -0.457
AGCCUAA | -0.759
UAGUCCG | -0.383
AUUGAGU | 0.235
CGCAAAC | -0.539
CCGCAGU | -0.513
AGUGAAA | 0.8
UAUAUCU | -0.441
CUCCAAC | -0.548
CCGGUUU | -0.412
AAUCGUA | -0.448
UACCAGC | -0.49
GAGCAGU | 0.215
UAGUUAC | -0.389
GAGGAGA | 1.69
AGUUUUG | -0.0544
GAGUAGG | 3.18

Sequence | RNAcompete 7-mer binding Z-score
GCUAGCG | 0.0138
CGGAUUC | -0.305
UGGUGAG | 2.98
AGCUAGA | 0.0235
AAGUAUC | -0.688
UGCGAGG | 1.97
GGGUCUG | 1.14
UAAAUAG | -0.0674
UACUAGA | -0.363
CCCAGGC | -0.259
CACCGCC | -0.529
UGAAUUG | 0.329
CUCCCAA | -0.646
UUUCGUG | -0.366
UAGGACU | 0.313
UAUUAAC | -0.626
CCGACGC | -0.477
ACAACUG | -0.451
ACCCCUU | -0.772
AAAUCGC | -0.701
CGGACAU | 0.0268
GUCUAGG | 0.53
CGAGCCC | -0.665
